# Article PMC6919601, “Identification of Plasmodium dipeptidyl aminopeptidase allosteric inhibitors by high throughput screening” (PLoS ONE, 2019)
# Hit rate of the full screen: of about 110,000 compounds, about 230 (0.21%) showed an effect of 50% or more. This is one part of the list.
# Molecular target: DPAP1 (Plasmodium falciparum, UniProt Q8IIJ9)
# Test: primary screen, percent inhibition; read by cleavage of a fluorogenic dipeptide substrate; higher = more effect of the substance
# Design: species or system P. falciparum D10 trophozoite lysates; single well
# 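Also: 30 min substrate incubation versus DMSO and 10 µM JCP410 controls.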
# Chain of DPAP1 (Q8IIJ9 whole entry, looked up): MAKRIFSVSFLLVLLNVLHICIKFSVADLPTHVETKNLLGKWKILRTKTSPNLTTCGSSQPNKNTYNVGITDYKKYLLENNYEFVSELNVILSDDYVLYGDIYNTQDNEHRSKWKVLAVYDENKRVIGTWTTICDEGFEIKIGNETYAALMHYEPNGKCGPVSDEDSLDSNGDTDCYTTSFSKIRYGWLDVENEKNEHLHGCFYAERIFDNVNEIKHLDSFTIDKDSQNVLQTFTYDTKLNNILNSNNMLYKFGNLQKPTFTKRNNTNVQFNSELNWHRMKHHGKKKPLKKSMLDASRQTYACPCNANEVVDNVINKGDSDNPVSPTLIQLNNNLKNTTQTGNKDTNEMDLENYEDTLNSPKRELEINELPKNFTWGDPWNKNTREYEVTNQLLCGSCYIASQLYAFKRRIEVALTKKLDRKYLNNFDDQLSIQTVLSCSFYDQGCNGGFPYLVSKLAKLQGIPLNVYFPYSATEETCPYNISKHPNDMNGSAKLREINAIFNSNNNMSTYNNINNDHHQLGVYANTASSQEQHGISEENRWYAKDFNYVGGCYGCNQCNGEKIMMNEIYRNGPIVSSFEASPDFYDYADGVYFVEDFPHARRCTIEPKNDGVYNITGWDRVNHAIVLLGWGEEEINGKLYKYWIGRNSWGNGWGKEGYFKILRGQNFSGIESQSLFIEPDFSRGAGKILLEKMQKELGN
row,SMILES,% Inhibition @ 10 uM
1,CSc1nc(SC)c2c3c(oc2n1)COC(C)(C)C3,-2.63%
2,O=C(c1cccnc1)N1CCc2ccccc2C1,-1.6%
3,O=C(Nc1cccc(O)c1)C(=O)C1C(=O)Nc2ccccc2S1=O (stereo not shown),-1.04%
4,CCCCNC(=O)c1sc2ncn(CC(=O)N3CC(C)CC(C)C3)c(=O)c2c1C (stereo not shown),-2.17%
5,COc1cc(C2c3c(oc4ccccc4c3=O)C(=O)N2Cc2ccc(F)cc2)ccc1O (stereo not shown),-3.13%
6,CCc1ccc(C2=NN(CCC(=O)NCc3cccnc3)C(=O)CC2)cc1,-2.94%
7,CC1=C(C(=O)OCC(F)(F)F)C(c2ccccc2Cl)NC(=O)N1 (stereo not shown),5.92%
8,O=C(CSCC(=O)N(C1CCCCC1)C1CCCCC1)Nc1ccccc1,-5.31%
9,O=C(C(F)F)N(Cc1ccccc1)Cc1ccccc1,-3.52%
10,CCOC(=O)c1cc2cc(Br)ccc2oc1=O,-4.31%
11,CC(=O)c1cc(-c2ccc(F)cc2)n(CC(=O)N2CCC(C)CC2)c1C,-1.88%
12,CC(C)NC(=S)N1CCN(c2ccc(N3CCOCC3)nn2)CC1,-2.88%
13,COc1ccc(CCC2=NCCn3cccc32)cc1OC,-0.999%
14,COCCOC(=O)N/C=C\c1nc(O)c2ccccc2n1,-4.65%
15,Cc1cc(OC(C)C(=O)Nc2ccc(N(C)C)cc2)ccc1Cl (stereo not shown),-7.98%
16,O=C(c1ccccc1)c1conc1C(=O)c1ccc(Br)cc1,4.52%
17,CC(=O)C1=C(C)N=C2C(=C(O)c3ccccc32)C1c1cccc(Br)c1 (stereo not shown),-0.105%
18,O=C(O)c1ccc2nc3c4ccccc4c4ccccc4c3nc2c1,13.3%
19,Cc1ccc(-n2nc3c(=O)n(CCCC(=O)NCc4ccc5c(c4)OCO5)nc(C)c3c2C)cc1,-7.94%
20,CCC(C)NC(=O)C(C)n1sc2ccccc2c1=O (stereo not shown),-0.385%
21,CN1CCN(C(=O)/C=C\C(=O)O)CC1,-0.127%
22,COC12C=C(C)C(C(C)=C1)c1c(F)c(F)c(F)c(F)c12,1.4%
23,CCC(C)NC(=O)c1ccc(-n2cnc3cccnc32)cc1 (stereo not shown),-0.571%
24,COCCNC(=O)c1ccc(CSc2nc3cccnc3n2Cc2ccc(OC)cc2)cc1,2.72%
25,COC1CCCCC1NCCc1cccc(Cl)c1 (stereo not shown),3.44%
26,N#CCCS(=O)(=O)c1ccc(Br)cc1,1.63%

row,SMILES,% Inhibition @ 10 uM
1,O=C(Nc1ccccc1)c1cc2nc(C(F)F)cc(C(F)F)n2n1,2.4%
2,O=C(Nc1cccc2ccccc12)c1cccs1,-4.67%
3,CC(C)(C)c1[nH]nc2c1C(c1cccc(O)c1)C(C#N)=C(N)O2 (stereo not shown),-0.366%
4,Cc1cc(C)n(CCc2ccccc2)n1,-4.06%
5,Cc1ccc(NS(=O)(=O)c2ccc(Br)cc2C)c(C)c1,-6.07%
6,COC(=O)/C(C#N)=C/c1c(Oc2ccc(C)cc2)nc2ccccn2c1=O,-6.23%
7,CCCOC(C(=O)OC(C)CN(C)C)(c1ccccc1)c1ccccc1 (stereo not shown),-8.3%
8,CCn1c(C(=O)NCCc2ccc(OC)cc2OC)cc2sc(Cl)cc21,-6.68%
9,O=C(Nc1cccnc1)C1COc2ccccc2O1 (stereo not shown),-3.49%
10,COc1ccc(CC(=O)NCC2OCCc3ccccc32)cc1OC (stereo not shown),-5.28%
11,Cc1ccc(S(=O)(=O)Nc2ccc3c(c2)ncn3-c2ccccc2)cc1,1.03%
12,COC(=O)C(NC(=O)c1ccc(Cl)cc1Cl)c1ccccc1 (stereo not shown),2.13%
13,O=C(CCCCCNc1nc(S)nc2ccccc12)NC1CCN(Cc2ccccc2)CC1,9.34%
14,CN(c1ccc(C(=O)NCC2CCCO2)cc1)S(C)(=O)=O (stereo not shown),-0.469%
15,O=C(c1ccc2c(c1)nc(S)n1c3ccccc3nc21)N1CCN(c2ncccn2)CC1,7.11%
16,Cc1ccc(C2=NS(=O)(=O)N(C)C(C(=O)N3CCC(C)C4CCCCC43)=C2)cc1 (stereo not shown),-2.84%
17,Nc1ncnc2c1C(c1ccccc1)c1c(ccc3ccccc13)O2 (stereo not shown),1.31%
18,Cn1c(=O)c2c(nc(Cl)n2Cc2ccc(Cl)cc2Cl)n(C)c1=O,-4.59%
19,C=Cc1ccc(Cn2nc(-c3ccccc3)ccc2=O)cc1,-2.71%
20,CS[C@H]1C[C@H]2OC(c3ccccc3)=N[C@H]2C(=O)N1Cc1ccccc1,0.843%
21,O=C1OC(c2cc(Cl)ccc2Cl)=N/C1=C\c1cccnc1,2.72%
22,COc1ccc(-c2nc3n(n2)C(=O)CC(c2cc(OC)c(OC)c(OC)c2)S3)cc1 (stereo not shown),3.66%
23,COc1ccc(N2CCN(C(=O)N[C@@H](CC(C)C)C(=O)NCC#N)CC2)cc1,-2.02%
24,Cc1ccc2[nH]c(C)c(CC(=O)O)c2c1,7.02%
25,Nc1[nH]nc2nc(N3CCCCC3)nc(-c3ccco3)c12,-5.67%
26,O=c1c(-c2ccccc2)c(O)cc(-c2cccnc2)n1-c1ccc(Cl)cc1,0.674%

row,SMILES,% Inhibition @ 10 uM
1,COc1cc(SC)ccc1C(=O)Nc1ccc(Cl)cn1,-1.44%
2,CC1CC(=O)C2=C(C1)OC(N)=C(C#N)C2c1cccnc1 (stereo not shown),1.48%
3,CC1=CC(=O)C(C(C)C)=C/C1=N/OC(=O)c1ccccc1F,-2.14%
4,COC(=O)c1ccc(CSc2nnc(-c3ccncc3)n2Cc2ccccc2)o1,4.54%
5,CCc1c(C)nc2ccc(N)cc2c1Cl,10.8%
6,CC1=C(C(=O)Nc2ccc(Br)cn2)C(c2ccc(N(C)C)cc2)C2=C(O)CCCC2=N1 (stereo not shown),-0.305%
7,CC1(C)CC(=O)C2=C(C1)N(c1ccccc1)C1=C(C2)C(=O)CC(C)(C)C1,-9.68%
8,COc1ccccc1NCN1C(=O)C2CCC(C)CC2C1=O (stereo not shown),2.7%
9,Cc1ccc(-c2nn(CC(=O)N3CCN(Cc4ccccc4)CC3)c(=O)c3ccccc23)cc1,3.67%
10,O=C1C2CCCCC2C(=O)N1c1cc(Cl)ccc1O (stereo not shown),-2.34%
11,COc1ccc2oc(O)cc(=O)c2c1,-1.76%
12,CCOC(=O)c1cc2c(=O)n3ccccc3nc2n(CCOC)/c1=N/C(=O)c1cccnc1,-3.78%
13,COc1ccc(CN2CCN(C(=O)CN3C(=O)C4C5C=CC(C5)C4C3=O)CC2)c(OC)c1OC (stereo not shown),-2.9%
14,CCC(C)n1nc(O)c2c1NC(=O)CSC2c1ccccc1OC (stereo not shown),-0.45%
15,C=CCn1c(SCC(=O)Nc2ccc3c(c2)OCCO3)nc2sc3c(c2c1=O)CCC3,2.38%
16,CCN(CC)Cc1c(O)ccc2c(=O)c(-c3ccccc3Cl)coc12,0.727%
17,CNC(C)c1ccc(OC)cc1OC (stereo not shown),-0.216%
18,CCOc1ccc(C(=O)Nc2ccccc2-c2nc3ccccc3s2)cc1,-3.93%
19,Cc1sc(NC(=O)c2ccnn2C)c(C#N)c1-c1ccc(F)cc1,-1.98%
20,COC(=O)c1ccc(C2CC(=O)N3C(=C2C#N)SCC3(O)c2ccc(OC)c(OC)c2)cc1 (stereo not shown),7.77%
21,CN1CCc2c(c(S)sc(=N)c2C#N)C1,5.59%
22,N#Cc1c(NC(=O)CCCCCN2C(=O)c3ccccc3C2=O)sc2c1CCC2,0.983%
23,CN1CCN(C2CCc3ccccc3C2)CC1 (stereo not shown),-7.35%
24,O=C(O)CN(Cc1ccccc1)S(=O)(=O)c1ccc(F)cc1,2.9%
25,Cc1cc(NC(=O)c2cc(-c3ccc4c(c3)OCO4)on2)n(-c2ccccc2)n1,0.0221%
26,CC(O)CN(Cc1ccc(Cl)c(Cl)c1)CC(C)O (stereo not shown),-0.603%

row,SMILES,% Inhibition @ 10 uM
1,CCOC(=O)c1c(N)sc2c1CCCC2=O,-7.87%
2,CC(C)(C)C1CC(=O)CN(C(C)(C)C)C1 (stereo not shown),-2.91%
3,Cc1ccccc1S(=O)(=O)Cc1ccc(C(=O)N2CCC3(CC2)OCCO3)o1,2.14%
4,COc1ccc(Cl)cc1NC(=O)c1ccc(C)o1,1.59%
5,CC(C)C[C@H](NC(=O)OCc1cccc2[nH]ccc12)C(=O)NCC#N,1.71%
6,Cn1c(=O)c2c(nc3n(Cc4ccccn4)c(-c4ccc(F)cc4)cn23)n(C)c1=O,-10.2%
7,O=C(NCc1cccnc1)/C(=C/c1ccc(-c2ccc(Cl)cc2)o1)S(=O)(=O)c1ccccc1,2.17%
8,O=C(N/C(=C/c1cccnc1)C(=O)N1CCCCCC1)c1ccco1,3.79%
9,O=C(O)c1cc(Br)ccc1NS(=O)(=O)c1ccc(Cl)cc1,-11.3%
10,Cc1ccc(-c2nnc3n(Cc4ccccc4)c(=O)c4ccccc4n23)cc1,1.68%
11,CCSC1=C(C#N)C(=O)NCS1,-3.53%
12,CN(C)CCN(Cc1ccccc1)Cc1ccc(F)c(Br)c1,-5.11%
13,Oc1c(C(O)(C(F)(F)F)C(F)(F)F)cc(Cl)cc1C(O)(C(F)(F)F)C(F)(F)F,1.84%
14,Cc1ccc(S(=O)(=O)N2CCn3c(nc4ccccc43)C2)cc1,-5.47%
15,Oc1ccc(-c2csc(-c3c[nH]c4ccccc34)n2)c(O)c1,-4.62%
16,O=C(Nc1ccccc1C(=O)Nc1ccc(Cl)cc1)c1cccs1,1.96%
17,O=C(C1=C(O)C(=O)N(CCCn2ccnc2)C1c1ccc(Cl)cc1)c1ccc2c(c1)OCCO2 (stereo not shown),11.7%
18,C(=C\c1ccccc1)/CN1CCN(CC2CCCCC2)CC1,-1.78%
19,CC(=O)N1CCN(Cc2ccccc2Br)CC1,-1.5%
20,CSc1ncc(OCc2ccccc2)c(O)n1,-3.63%
21,Cc1ccc(-n2c(C)cc(C(=O)C(=O)Nc3nccs3)c2C)c(C)c1,5.48%
22,O=c1c2c(nc3n1CC(O)CS3)-c1ccccc1CC21CCCCC1 (stereo not shown),-0.711%
23,CCc1c(C)sc(NC(=O)c2cccc3ccccc23)c1C#N,5.54%
24,CN(C)C(=S)NC1CCS(=O)(=O)C1 (stereo not shown),2.56%
25,Cc1cc(CO)c(C)n1-c1ccccc1F,3.05%
